According to the supplement of paper PMC10126150:
Values marked as one replicate rest on one cluster of the flow cell; about a third of the high ones do not repeat.

Test system: ATP
Test: switch fluorescence ratio, 500 uM ATP over buffer (Cy3 cluster intensity, sum of 5 cycles each) (fold (ratio)); higher = stronger signal-on switching upon ATP binding; sequences stand for … in TCGTCGGCAGCGTCAGATGTGTATAAGAGACAGTTTTTTTTTTTTTTTTTTTTTTTTT…TC
Conditions: aptamer strand: ATP DNA aptamer (quencher-CACCTGGGGGAGTATTGCGGAGGAAGG + anchor), 100 nM annealed; ATP concentration: 500 uM; one replicate
Summary of the method: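 Clusters with intensities outside 100-1000 RFU were excluded. The remaining Cy3-labelled switching-strand clusters on a modified Illumina MiSeq flow-cell had been annealed to 100 nM quencher-labelled ATP aptamer and imaged in selection buffer, then after 15 min with 500 uM ATP at 22 °C, for five cycles separated by NaOH stripping and re-annealing. The fluorescence ratio, averaged per switch-domain sequence, is each cluster's summed target-cycle Cy3 intensity over its summed buffer-cycle Cy3 intensity.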
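Also: ATP exposure 15 min at 22 °C before imaging.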

Sequence	switch fluorescence ratio
TGACGCTAG	0.992
ACGGGTCGC	1.06
AAGGCAGAGA	1.07
AGCCCGATGT	1.01
TTGAAAATTG	0.999
TCCATATTGT	0.981
TTCAATCAGG	1.38
AAGCCACTGT	1.1
TCAGCTCAGT	1.01
CCGTTTTTCA	1.01
GATTAGGAGC	1.04
TTAAGTTATC	1.03
TGAGCAATTG	1.2
TATGTGTACC	1.01
TACAATTGTA	1.02
TAGGCTCCAG	1.05
AATGCGTCAC	0.991
ACAGATTGTT	0.958
TAGCAAGAGC	1.13
CCAATACGC	2.64
GTGCGTCGA	1
TACGTCCTGA	1.02

Sequence	switch fluorescence ratio
AGTACTGGCC	1.1
GCAGCATTGG	1.88
TTTTCAGCTC	0.988
ACTAAACAAA	1.02
TGATTTTGCA	0.987
TTACCTATAT	1.04
TCTGGTCTGC	1.04
ACCGAAAACA	1.05
ATAAAGCGAC	1.07
CTGGAGCTAT	4.31
TACTAATAAA	1.04
AGTACTCGGC	1.08
TCATGTGAGC	0.966
GAACCAGCGG	1.06
TTGGTTATTC	1
TGGGACCGGA	0.994
ATTCATTCCG	1.07
GTGGCTGACA	1.06
AGCAGTGGCC	1.02
TAAGAGCACT	1.01
ACGTTCGTGG	1.04
AGGTCACCTT	1

Sequence	switch fluorescence ratio
GAAATAAAGT	1
CACTTTTCAA	0.997
TAAAGCATCA	0.947
TGTAGGCTTG	0.982
TGGCAGATTG	0.98
TTTAGTGGCC	1.01
ACGATCGCCG	1.03
TGGTTTATGC	1.02
ACCGTTGGCC	1.68
GATCCAGGAA	1.01
GTCGGGACGT	0.971
ATCCTGTAGG	0.992
GGCGGCGGCA	0.996
ATTTTCGGGC	0.975
CTCCATGCAG	1.36
GTTAGTAGGC	0.942
GGCTGTGT	0.974
TTATGTTGGC	0.965
GTCTAACCGC	1.02
AAGTTGAACT	0.939
GAATGATTAT	0.994
GAAGATGGGC	1.02

Sequence	switch fluorescence ratio
AATAAAGTAT	0.972
CGAGGATCAG	1.01
TGTTCCGTTG	1.1
GTCAACCCGG	1.06
GTGACCTGT	0.96
TAGAAAGGAC	1.84
TGTAGGGCCT	1.03
CCCGCTTTTG	1.13
ATTACGGGAC	1.32
TAAAGATGGG	0.974
TAGGGATTC	1.02
GATGGCGCTG	1.02
TTTCCATGGC	0.991
TCTAAGATAG	1.03
GAGGGTGAAC	1.04
TCGGAGGCAG	1.01
CTGCCTTCTT	1.05
CGTCGCAGGT	1.12
GACGAAAGGG	1.03
